These results are taken from a collection of fitness landscapes (doi:10.1016/j.celrep.2020.107928).

B1: Caulobacter ParB omega fusion; a variant is named by its letters at X, in order, B8GW30 (parent)
chain: MESVVVGEPGMSEGRRGLGRGLSALLGEVDAAPAQAPGEQLGGSREAPIEILQRNPDQPRRTFREEDLEDLSNSIREKGVLQPILVRPSPDTAGEYQIVAGERAWRAAQRAGLKTVPIMVRELDDLAVLEIGIIENVQRADLNVLEEALSYKVLMEKFERTQENIAQTIGKSXSHVANXMRLLXLPDEVQSYLVSGELTAXHARAIAAAADPVALAKQIIEGGLSVRETEALARKAPNLSAGKSKGGRPPRVKDTDTQALESDLSSVLGLDVSIDHRGSTGTLTITYATLEQLDDLCNRLTRGI

The full ranking holds about 81,000 sequences; the median of “one-hybrid fitness for binding parS DNA” is about -0.17, and the highest 2% start at about 0.51. Some of the results follow.

The assay covers variants of B1. In words: one-hybrid fitness for binding parS DNA (scaled: cognate 1, non-cognate 0); higher = stronger binding. The conditions noted are these: with parS DNA site. An outline of the steps: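 On M9-minus-histidine containing 0.1 mM IPTG and 5 mM 3-AT, E. coli USO cells with a HIS3 reporter, site 19 bp from the promoter, grew 48 hours at 37°C to select Caulobacter ParB libraries randomised at four specificity codons. Plasmids from before and after were Illumina-sequenced, with three replicate libraries pooled and variants under 10 reads left out. Fitness is the log change in variant-to-wild-type read ratio, rescaled against cognate and non-cognate.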
For SHVF, the “one-hybrid fitness for binding parS DNA” value is no more than 0.2.
To AHSV belongs no more than 0.2.
Regarding YSNK, the “one-hybrid fitness for binding parS DNA” value is no more than 0.2.
To CVDN belongs no more than 0.2.
With MYLR the figure was no more than 0.2; with CPPW, no more than 0.2.
As to NMHI, the “one-hybrid fitness for binding parS DNA” value is no more than 0.2.
As to RWMY, the “one-hybrid fitness for binding parS DNA” value came out at 0.246.
On to RMTE, for which the “one-hybrid fitness for binding parS DNA” value is no more than 0.2.
To EYYV belongs no more than 0.2; to PLFG, no more than 0.2.
As to QVDA, the “one-hybrid fitness for binding parS DNA” value was no more than 0.2.
To DTKA belongs no more than 0.2; to ITAT, no more than 0.2.
As for ATTN, the “one-hybrid fitness for binding parS DNA” value was no more than 0.2.
With RFSP the figure was no more than 0.2; with GYLD, no more than 0.2.
Consider NLQI, for which the “one-hybrid fitness for binding parS DNA” value was no more than 0.2.
To ISQE belongs no more than 0.2; to TVRM, no more than 0.2.
To MDME belongs no more than 0.2; to PRCH, no more than 0.2; to PVKN, no more than 0.2.
Consider RMCI, for which the “one-hybrid fitness for binding parS DNA” value was no more than 0.2.
To RSIN belongs 0.269.
As for ANHD, the “one-hybrid fitness for binding parS DNA” value is no more than 0.2.
To DMGM belongs no more than 0.2; to VKRI, no more than 0.2; to HTYG, no more than 0.2.
To LRWN belongs no more than 0.2; to QPHV, no more than 0.2.
To CVNR belongs no more than 0.2; to RNYV, no more than 0.2.
With FPIE, the “one-hybrid fitness for binding parS DNA” value was no more than 0.2.
To DQPH belongs no more than 0.2; to WFVC, no more than 0.2.
To DYQS belongs no more than 0.2.
For RLRR, the “one-hybrid fitness for binding parS DNA” value was no more than 0.2.
With NYTS, the “one-hybrid fitness for binding parS DNA” value was no more than 0.2.
Consider YRAG, for which the “one-hybrid fitness for binding parS DNA” value stood at 0.212.
With YAYR, the “one-hybrid fitness for binding parS DNA” value is no more than 0.2.
As for FFNG, the “one-hybrid fitness for binding parS DNA” value was no more than 0.2.
With ACVG the figure was no more than 0.2; with PAKL, no more than 0.2; with QRLL, no more than 0.2.
To DVTE belongs no more than 0.2; to ALVR, no more than 0.2.
With RGGI the figure was no more than 0.2; with QTGK, no more than 0.2; with KRLT, no more than 0.2.
CRRK: the “one-hybrid fitness for binding parS DNA” value is no more than 0.2.
To AWGC belongs no more than 0.2.
To DSRR belongs no more than 0.2; to TPDL, no more than 0.2.
As to PAHD, the “one-hybrid fitness for binding parS DNA” value was no more than 0.2.
To ALFN belongs no more than 0.2; to QVIH, no more than 0.2.
To TNGD belongs no more than 0.2; to NFRN, no more than 0.2; to GSDT, no more than 0.2.
On to WAHD, for which the “one-hybrid fitness for binding parS DNA” value is no more than 0.2.
For SQTY, the “one-hybrid fitness for binding parS DNA” value was no more than 0.2.
QPMT: the “one-hybrid fitness for binding parS DNA” value was no more than 0.2.
Take SLET: the “one-hybrid fitness for binding parS DNA” value is no more than 0.2.
With CHSC the figure was no more than 0.2.
For the variant VKKR, the “one-hybrid fitness for binding parS DNA” value was no more than 0.2.
With QEDR the figure was no more than 0.2; with QERW, no more than 0.2; with NPQP, no more than 0.2.
With KYRG the figure was no more than 0.2; with AVTV, no more than 0.2; with KAVT, no more than 0.2.
With DYWT the figure was no more than 0.2; with GMPD, no more than 0.2.
In the case of SVNI, the “one-hybrid fitness for binding parS DNA” value was no more than 0.2.
To HVEY belongs no more than 0.2; to QKYF, no more than 0.2.
Turning to CHIA, the “one-hybrid fitness for binding parS DNA” value was no more than 0.2.
With PHWV the figure was no more than 0.2.
With MRLC the figure was no more than 0.2.
Take FTSW: the “one-hybrid fitness for binding parS DNA” value is no more than 0.2.
With TQAT the figure was no more than 0.2.
With QHLT the figure was no more than 0.2; with ISFE, no more than 0.2.
For GVQL, the “one-hybrid fitness for binding parS DNA” value is no more than 0.2.
With HSLS, the “one-hybrid fitness for binding parS DNA” value was no more than 0.2.
As to NFST, the “one-hybrid fitness for binding parS DNA” value was no more than 0.2.
As to ILRS, the “one-hybrid fitness for binding parS DNA” value was no more than 0.2.
As to EASD, the “one-hybrid fitness for binding parS DNA” value is no more than 0.2.
With CDAE the figure was no more than 0.2.
Turning to KRSE, the “one-hybrid fitness for binding parS DNA” value is no more than 0.2.
As for KQYR, the “one-hybrid fitness for binding parS DNA” value is no more than 0.2.
With DVET the figure was no more than 0.2; with SPCE, no more than 0.2; with QNLR, no more than 0.2.
For KTDD, the “one-hybrid fitness for binding parS DNA” value is no more than 0.2.
On to SPND, for which the “one-hybrid fitness for binding parS DNA” value was no more than 0.2.
For TFNR, the “one-hybrid fitness for binding parS DNA” value is no more than 0.2.
To ELKS belongs no more than 0.2; to QVNA, no more than 0.2.
To TVWY belongs no more than 0.2; to SNCR, no more than 0.2.
On to TPIV, for which the “one-hybrid fitness for binding parS DNA” value is no more than 0.2.
To NQVG belongs no more than 0.2.
With MVSW the figure was no more than 0.2; with AWPL, no more than 0.2; with DTRR, no more than 0.2.
Take PCPI: the “one-hybrid fitness for binding parS DNA” value is no more than 0.2.
Turning to LARI, the “one-hybrid fitness for binding parS DNA” value was no more than 0.2.
With PIGG the figure was no more than 0.2.
To RMKR belongs no more than 0.2; to QDRG, no more than 0.2.
In the case of KSSV, the “one-hybrid fitness for binding parS DNA” value was no more than 0.2.
To CPVR belongs no more than 0.2.
For DAES, the “one-hybrid fitness for binding parS DNA” value is no more than 0.2.
To QTWM belongs no more than 0.2.
To MTYC belongs no more than 0.2; to QMWR, no more than 0.2.
For the variant SARD, the “one-hybrid fitness for binding parS DNA” value is no more than 0.2.
To SLWT belongs no more than 0.2; to DRQT, no more than 0.2.
To QCSR belongs no more than 0.2.
Consider KLIG, for which the “one-hybrid fitness for binding parS DNA” value is no more than 0.2.
For the variant RVSG, the “one-hybrid fitness for binding parS DNA” value was determined as 0.999.
With PRYI the figure was no more than 0.2; with QEKL, no more than 0.2.
To ACPC belongs no more than 0.2.
To HKLC belongs no more than 0.2.
Turning to HTIP, the “one-hybrid fitness for binding parS DNA” value was no more than 0.2.
For the variant LSKY, the “one-hybrid fitness for binding parS DNA” value was no more than 0.2.
Turning to PPLV, the “one-hybrid fitness for binding parS DNA” value is no more than 0.2.
As for LNPN, the “one-hybrid fitness for binding parS DNA” value was no more than 0.2.
For ADHF, the “one-hybrid fitness for binding parS DNA” value is no more than 0.2.
Regarding RFKV, the “one-hybrid fitness for binding parS DNA” value was no more than 0.2.
As for QTIE, the “one-hybrid fitness for binding parS DNA” value is no more than 0.2.
AGSM: the “one-hybrid fitness for binding parS DNA” value is no more than 0.2.
For the variant YGCR, the “one-hybrid fitness for binding parS DNA” value is no more than 0.2.
With QFYL the figure was no more than 0.2; with PSPV, no more than 0.2.
To SRLS belongs no more than 0.2; to QSIR, no more than 0.2.
To AAHE belongs no more than 0.2; to CLFS, no more than 0.2; to KQNG, no more than 0.2.
Consider KHNA, for which the “one-hybrid fitness for binding parS DNA” value was no more than 0.2.
For the variant AGNT, the “one-hybrid fitness for binding parS DNA” value is no more than 0.2.
With WWAC the figure was no more than 0.2; with DNMR, no more than 0.2; with GTTP, no more than 0.2.
With NQMT the figure was no more than 0.2; with SDLQ, no more than 0.2; with TQQR, no more than 0.2.
With VTVG the figure was no more than 0.2.
